Some of the results follow. Sequences were assembled here from the parent chain. Values near 0.05 are background.
B1: TEV protease; numbered along this chain (parent)
chain: MGESLFKGPRDYNPISSSICHLTNESDGHTTSLYGIGFGPFIITNKHLFRRNNGTLVVQSLHGVFKVKDTTTLQQHLVDGRDMIIIRMPKDFPPFPQKLKFREPQREERICLVTTNFQTKSMSSMVSDTSCTFPSGDGIFWKHWIQTKDGQCGSPLVSTRDGFIVGIHSASNFTNTNNYFTSVPKNFMELLTNQEAQQWVSGWRLNADSVLWGGHKVFMVKPEEPFQPVKEATQL

Variants of: B1
Assay: raw area under fraction-flipped curve 0-4 h after induction (AUC4h, not background-subtracted), DNA-recorder readout of cleavage of the substrate (dimensionless); higher = more cleavage of the substrate by the protease variant
Conditions: temperature: 34 °C; time window: 0-4 h after rhamnose induction
Procedure: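 In vivo DNA recorder in E. coli TOP10(DE3) ΔrhaA at 34 °C. Each TEVp single-site mutant (parent TEVp 0) is paired with a single-site variant of the 7-mer TEVs (canonical ENLYFQ|S). The substrate sits between flexible linkers in a Bxb1-sfGFP-TEVs-SsrA fusion, so cleavage stabilises Bxb1 and speeds flipping of a recombination array, read by NGS. The value is the raw area under the fraction-flipped curve over 0-4 h after rhamnose induction (AUC4h), with ≥20 reads per time point. It is not background-subtracted; inactive controls average about 0.047.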
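Also: Bxb1 expression induced with 0.2% (w/v) L-rhamnose at OD600 near 0.5, cultures sampled hourly, flipped fraction per protease–substrate barcode pair counted by paired-end Illumina sequencing.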

| Variant | area with substrate ENLYFQA | area with substrate ENLYFQC | area with substrate ENLYFQH | area with substrate ENLYFQI | area with substrate ENLYFQK | area with substrate ENLYFQL | area with substrate ENLYFQM | area with substrate ENLYFQN | area with substrate ENLYFQP | area with substrate ENLYFQQ | area with substrate ENLYFQR | area with substrate ENLYFQS | area with substrate ENLYFQT | area with substrate ENLYFQW | area with substrate ENLYFQY | area with substrate ENLYFQF | area with substrate ENLYFQG | area with substrate ENLYFQV | area with substrate ENLYFQD | area with substrate ENLYFQE |
| --- | --- | --- | --- | --- | --- | --- | --- | --- | --- | --- | --- | --- | --- | --- | --- | --- | --- | --- | --- | --- |
| I164A | 0.0739 | 0.0698 | 0.0727 | 0.066 | 0.0539 | 0.0527 | 0.0542 | 0.057 | 0.0549 | 0.039 | 0.0556 | 0.0634 | 0.0668 | 0.0486 | 0.0571 |  |  |  |  |  |
| I167K | 0.0733 | 0.0576 | 0.0548 | 0.0488 | 0.0599 | 0.0515 | 0.0417 | 0.0507 | 0.071 | 0.0577 | 0.0483 | 0.0551 | 0.0518 | 0.0557 | 0.0512 | 0.0442 | 0.0511 | 0.0663 |  |  |
| H168D | 0.0518 | 0.0526 | 0.0607 | 0.0632 | 0.0515 | 0.0561 |  | 0.061 | 0.0559 |  | 0.0541 | 0.059 | 0.0553 | 0.0516 | 0.0412 | 0.0589 |  | 0.0596 | 0.0328 | 0.0566 |
| H168I | 0.0598 | 0.0596 | 0.0429 | 0.0451 | 0.0822 | 0.0506 | 0.0407 | 0.0529 | 0.0646 | 0.071 | 0.0766 | 0.0606 | 0.0569 | 0.0509 |  | 0.061 | 0.0742 | 0.0628 | 0.0578 |  |
| H168E | 0.0934 | 0.064 | 0.0495 | 0.0533 | 0.0538 | 0.0502 | 0.0595 | 0.0526 |  |  | 0.0563 | 0.0597 | 0.0618 | 0.0471 | 0.0542 | 0.0389 | 0.075 |  |  | 0.0729 |
| H168F | 0.052 | 0.0471 | 0.0312 |  | 0.0535 | 0.0489 | 0.0488 | 0.057 | 0.0562 |  | 0.0543 | 0.0588 | 0.0583 |  | 0.0652 | 0.0533 |  |  | 0.0599 | 0.0713 |
| H168Q | 0.0672 | 0.0691 |  | 0.058 | 0.0588 | 0.0519 | 0.0611 | 0.0506 | 0.0543 | 0.0971 |  | 0.0688 | 0.0541 | 0.0557 | 0.0735 |  | 0.0756 | 0.0629 | 0.0712 |  |
| H168L | 0.0572 | 0.0557 | 0.053 | 0.0543 |  | 0.0432 |  | 0.0544 | 0.0581 |  | 0.107 | 0.0582 | 0.0605 | 0.0613 | 0.0578 | 0.0592 | 0.059 | 0.0592 | 0.0569 |  |
| V157F | 0.079 | 0.107 | 0.0769 | 0.0602 | 0.0583 | 0.047 | 0.0791 |  |  |  | 0.0615 | 0.0853 | 0.0533 | 0.0422 | 0.0269 | 0.0622 | 0.0924 | 0.0607 |  |  |
| C152L | 0.0595 | 0.0568 | 0.0943 |  | 0.0658 | 0.0623 |  | 0.0623 |  |  |  | 0.0611 | 0.0711 | 0.0502 | 0.0462 |  | 0.0591 |  |  |  |
| C152M | 0.0532 |  |  | 0.0548 | 0.0665 |  |  | 0.0598 | 0.0558 |  |  | 0.0576 |  |  | 0.0765 | 0.0608 |  | 0.0349 |  |  |
| C152W | 0.0629 | 0.0436 | 0.0614 |  | 0.059 | 0.0542 | 0.0588 | 0.0556 | 0.0673 |  | 0.0613 | 0.0584 | 0.0449 | 0.0537 |  | 0.032 | 0.0578 | 0.0639 | 0.0663 |  |
| T176C | 0.0649 | 0.0563 |  | 0.0606 |  | 0.0595 | 0.0788 | 0.0608 |  |  | 0.0689 | 0.075 |  |  | 0.0422 |  |  | 0.0567 |  |  |
| T176D | 0.0665 | 0.0796 | 0.08 | 0.0448 | 0.0675 | 0.0595 |  | 0.0722 |  |  | 0.0581 | 0.0813 | 0.0645 | 0.0781 |  | 0.0631 |  |  |  | 0.086 |
| T176I | 0.0774 | 0.0685 |  | 0.0723 | 0.0608 | 0.0525 |  | 0.0662 | 0.056 | 0.0552 | 0.0553 | 0.0712 | 0.0539 | 0.0561 |  |  | 0.0805 | 0.0578 | 0.0668 |  |
| T176F | 0.0724 |  |  | 0.056 |  | 0.0639 |  |  |  |  | 0.0466 | 0.0686 | 0.0402 |  |  |  | 0.0752 |  |  |  |
| R160D | 0.102 | 0.125 |  | 0.067 | 0.0598 | 0.0718 | 0.0968 | 0.0901 | 0.0569 |  | 0.0622 | 0.108 | 0.0633 | 0.0627 | 0.0758 | 0.0746 | 0.09 | 0.0622 |  |  |
| R160N | 0.102 | 0.187 |  |  | 0.0729 |  | 0.0902 | 0.0784 |  |  | 0.0614 | 0.108 |  |  |  | 0.0888 |  |  |  |  |
| R160V | 0.0922 |  | 0.0799 | 0.0539 |  | 0.0598 | 0.0948 | 0.0747 | 0.0531 | 0.0745 | 0.0603 | 0.103 | 0.0524 | 0.073 | 0.0541 | 0.0777 | 0.146 |  | 0.0773 | 0.0385 |
| R160I | 0.0711 | 0.113 |  | 0.0469 | 0.0618 | 0.0634 | 0.0891 | 0.0753 | 0.0653 | 0.0896 | 0.0591 | 0.0943 | 0.0754 | 0.0548 | 0.0746 |  | 0.109 | 0.0542 | 0.0595 |  |
| T174D | 0.0971 | 0.113 | 0.109 | 0.0657 | 0.0566 | 0.0658 |  | 0.0614 | 0.0683 |  | 0.0637 | 0.0939 |  | 0.0707 |  | 0.0726 | 0.0829 |  | 0.0716 |  |
| N175K | 0.115 | 0.12 | 0.0812 | 0.0541 | 0.0635 |  | 0.0725 | 0.0671 | 0.0542 | 0.0643 | 0.0611 | 0.103 | 0.0657 | 0.0762 |  | 0.0705 |  | 0.0512 | 0.0644 |  |
| V165E | 0.055 |  | 0.0773 | 0.0643 | 0.0569 | 0.0514 | 0.0526 | 0.0467 | 0.0521 | 0.0399 | 0.0539 | 0.055 | 0.06 |  | 0.0587 | 0.0627 | 0.0285 | 0.0541 |  |  |
| D161V | 0.0617 | 0.0601 | 0.0476 | 0.0524 | 0.0454 | 0.0488 | 0.0458 | 0.0583 | 0.0892 | 0.0406 | 0.0378 | 0.0567 | 0.0579 | 0.0516 | 0.0582 | 0.057 | 0.0605 | 0.0442 | 0.058 |  |

From the supplement of paper PMC12217912
